Over roughly 33,000 sequences, “E-score (-0.5 to 0.5)” has its median near -0.016; the highest 2% begin near 0.32. Some of the results follow.
Molecular target: T1, Stp1 (UniProt B3LFK1)
T1 sequence: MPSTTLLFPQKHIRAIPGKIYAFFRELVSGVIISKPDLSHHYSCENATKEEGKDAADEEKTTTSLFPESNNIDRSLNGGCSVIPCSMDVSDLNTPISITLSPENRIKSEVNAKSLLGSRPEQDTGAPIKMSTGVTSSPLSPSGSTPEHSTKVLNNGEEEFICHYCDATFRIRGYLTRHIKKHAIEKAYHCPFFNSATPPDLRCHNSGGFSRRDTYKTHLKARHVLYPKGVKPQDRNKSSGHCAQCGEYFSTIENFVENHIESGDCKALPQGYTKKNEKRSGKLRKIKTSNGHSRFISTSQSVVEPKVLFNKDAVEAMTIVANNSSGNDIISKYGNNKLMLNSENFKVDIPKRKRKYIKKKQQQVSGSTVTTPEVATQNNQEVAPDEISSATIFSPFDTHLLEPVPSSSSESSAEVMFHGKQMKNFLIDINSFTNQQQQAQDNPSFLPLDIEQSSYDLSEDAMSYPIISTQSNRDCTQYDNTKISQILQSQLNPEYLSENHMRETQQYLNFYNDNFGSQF
Assay: PBM E-score (8-mer binding enrichment) (E-score (-0.5 to 0.5)); higher = stronger / more preferred TF binding; most listed sequences are background and not binding sites
Settings: protein concentration: 200 nM; construct: GST-full length
Summary of the method: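 For each ungapped eight-base word taken together with its reverse complement, the Universal PBM Analysis Suite assigned an E-score. Binding data came from GST-tagged yeast transcription factors, applied at about 100-200 nM, on universal all-10-mer Agilent arrays made double-stranded by primer extension. Fluorescent anti-GST marked bound protein, and scans were normalised with masliner.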

Sequence | PBM E-score
AAAACGCG | 0.251
AACATTTG | -0.118
CTAGCTTC | -0.141
ACATCTCT | -0.108
AAGGTCCG | 0.0055
GATCGTAC | -0.135
CAGTTTCC | -0.0826
GATTCGCC | 0.117
CGCCAGTA | -0.00993
CCCTACAA | 0.0648
GGAGGGTA | -0.195
TGGCCAAA | -0.185
ACCACCTC | -0.108
CTTCCCTC | -0.25
ACCTCCCT | -0.338
ACGCCACA | 0.295
TAGAGGGA | -0.18
CGTATACC | -0.102
CTGTAAAC | -0.0181
CGAATACG | 0.0295
CAACCTCG | 0.0946
AAGCAGGT | -0.00551
CGGCATCC | 0.353

Sequence | PBM E-score
ACCGGAGC | -0.0724
TGGAGAAA | 0.0545
TCTGTGCA | 0.0204
TACCAACA | 0.119
CTATCTAC | -0.0115
GCCTGACA | -0.199
AATCCCGC | 0.146
CCAATCTA | -0.0701
AGTAAGTC | -0.3
CCCGGTGA | -0.182
CAATGATG | -0.121
GGATGGTA | 0.101
GGACATTA | 0.00641
ACGTAACC | -0.0919
CGTCGCAG | 0.0327
AGCCCAAC | -0.185
AGTCATCA | -0.16
ATCGACTC | -0.2
AACGCATT | 0.0341
ATCTTGAG | -0.0881
GGGACGAA | -0.18
CAGGGCGA | 0.0902
CGTGACAA | -0.0715

Sequence | PBM E-score
CTTCCCGA | 0.0459
GGAGATAC | -0.0561
CATCTTGA | -0.0859
ACTGACCG | -0.134
ATGGCCCA | -0.087
AATCAAGA | 0.0814
TAAAAGTA | 0.0436
CCCCTCCC | -0.232
GGTTCTGA | 0.101
GCATGCGA | 0.117
GCCGTGAC | 0.294
CGTTACGA | 0.131
GGCTACCA | -0.0236
AGCCACCT | -0.21
ATAGGACG | -0.0533
ATGATTAG | -0.127
TGATAAAA | 0.183
GATTTCAA | 0.0202
CAGATCCA | 0.0873
CAGGTGAA | 0.103
CCAGCGAA | -0.209
CTGTGTAC | 0.0488
ACCAACAT | 0.237

Sequence | PBM E-score
AAGCTAAT | 0.103
CGTGGGGC | 0.0277
AGTTATCG | 0.106
GCCGCCTA | 0.185
GGTCACCA | -0.264
CCGTACTC | 0.145
CTATCGAG | 0.0364
ACTGTCTG | -0.0255
AAATAGTA | 0.0861
AGCCAGCC | -0.262
GTCAACAA | -0.0577
CCAAAACC | 0.0568
CATGTACC | -0.114
GCCTGCCA | -0.00465
AATGCTGT | -0.0931
CACGCTTA | 0.0934
AGGCTAAT | 0.134
CCCGAAAA | 0.0165
CGGGGGTA | -0.175
AGTGTGCC | 0.128
GCAGCACA | 0.117
GGCAGTAA | 0.0329
GAACTTGC | -0.0689

Sequence | PBM E-score
CTTCGATA | 0.0898
GAGGATTA | -0.0746
GCCGACAC | -0.165
ACCCGGAG | 0.0611
TGACCGAA | 0.0394
CATAAGAC | -0.0856
ATGGGTAG | -0.107
AAACCAAA | 0.074
ACTGTAAA | 0.163
AATTCTAC | 0.105
ACGATAAG | -0.108
GGAATGGA | -0.0435
CCAGGGCC | -0.261
AAGTCCAG | -0.265
AGACCGAG | -0.25
GCGAATAA | -0.0358
AAAAAGAG | -0.131
CGGGACGA | -0.117
ACTTAAGC | -0.0869
AAGTTAAA | 0.062
ATAGGTAG | -0.117
ACATGGCG | 0.0335
CCGCGACG | 0.197

Sequence | PBM E-score
CTTCTGAA | -0.0167
ACGGGCTA | -0.176
TAATCTCA | -0.0316
GCTTGCAA | 0.162
CACTCGAC | -0.0615
ATGCACCC | -0.0799
AGCCCACA | -0.306
ACATGGAC | -0.0662
GGGGTATA | -0.213
CGGCATTC | 0.441
GGACAAAA | 0.0594
ATTGGCGC | 0.189
CAAATGTC | -0.142
TCATTTCA | 0.0273
CTGAGAAC | 0.034
AAAGGGCC | -0.0703
CTGGGAAG | -0.137
ACACGCCA | 0.0386
ACTCCCGC | -0.0607
ATGTAAAC | 0.162
CTCTTACA | -0.0752
CGGATCTA | 0.0298
CGGAGCAA | -0.0204

Sequence | PBM E-score
GAATAGGA | -0.0336
ATCATCAT | 0.0193
ACGTTTCG | 0.028
ACAGATAT | -0.0191
AAACTAAG | 0.252
CATCAAAA | 0.22
GCCCGCAA | -0.145
AAAGGACT | -0.204
GTTCGCCA | -0.00728
CGGCAACA | 0.368
AATAATGC | 0.243
CCCCGACC | -0.273
AAACCTGC | -0.0641
CGTCACCA | -0.0712
AGAGTTTG | -0.0663
TACGCCTA | 0.03
GGGTGTCA | -0.166
AGCTGTCC | -0.166
TACGAAAA | 0.168
ACTAAAAC | -0.0146
TAGAGCGA | -0.0163

From the supplement of paper PMC3334620
